Measurements reported in patent US10357455B2, “Pharmaceutical compositions of amorphous dispersions of drugs and lipophilic microphase-forming materials” (Bend Research, Inc., priority 2002, dated 2019).

Assay: Partition coefficient of Drug 1 in lipophilic microphase-forming materials (NMR, PBS)
Conditions: for Highly-Mobile Drug 1 Concentration: deuterated PBS, overnight 37° C.

Highly-Mobile Drug 1 Concentration (crystalline Drug 1, Cremophore/Capmul 0.047 wt %): 9 µg/mL
Highly-Mobile Drug 1 Concentration (crystalline Drug 1, Cremophore/Capmul 0.089 wt %): 23 µg/mL
Highly-Mobile Drug 1 Concentration (crystalline Drug 1, Cremophore/Capmul 0.164 wt %): 53 µg/mL
[Drug]free (free drug concentration of crystalline Drug 1): 0.010 µg/mL
Structure (SMILES): CCOC(=O)N1c2ccc(C(F)(F)F)cc2[C@@H](N(Cc2cc(C(F)(F)F)cc(C(F)(F)F)c2)C(=O)OC)C[C@H]1CC [Drug 1, [2R,4S] 4-[(3,5-bis-trifluoromethyl-benzyl)-methoxycarbonyl-amino]-2-ethyl-6-trifluoromethyl-3,4-dihydro-2H-quinoline-1-carboxylic acid ethyl ester]
